Each structure is given as a SMILES string. The full ranking holds about 110,000 compounds; the median of “z-score” is about -0.1, and the highest 2% start at about 2. The list shows a part of the results. Calls of active or inactive are those of the source.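 How the source made its calls: active means z-score in the third read window above 3 or below -3; inactive means the rest.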

The target in the assay is Metabotropic glutamate receptor 8 (Rattus norvegicus) (UniProt P70579). Description: rat mGluR8 modulators via GIRK flux, primary screen, cell-based, thallium flux, HTS (AID 488969). To be noted: HEK293 rat mGluR8, GIRK (G protein-gated inwardly rectifying potassium channel) thallium flux, FluoZin2; at 10 µM; stronger effect = higher value; submaximal glutamate (EC20) added with thallium.
Sequence of UniProt P70579 (P70579 whole entry, looked up): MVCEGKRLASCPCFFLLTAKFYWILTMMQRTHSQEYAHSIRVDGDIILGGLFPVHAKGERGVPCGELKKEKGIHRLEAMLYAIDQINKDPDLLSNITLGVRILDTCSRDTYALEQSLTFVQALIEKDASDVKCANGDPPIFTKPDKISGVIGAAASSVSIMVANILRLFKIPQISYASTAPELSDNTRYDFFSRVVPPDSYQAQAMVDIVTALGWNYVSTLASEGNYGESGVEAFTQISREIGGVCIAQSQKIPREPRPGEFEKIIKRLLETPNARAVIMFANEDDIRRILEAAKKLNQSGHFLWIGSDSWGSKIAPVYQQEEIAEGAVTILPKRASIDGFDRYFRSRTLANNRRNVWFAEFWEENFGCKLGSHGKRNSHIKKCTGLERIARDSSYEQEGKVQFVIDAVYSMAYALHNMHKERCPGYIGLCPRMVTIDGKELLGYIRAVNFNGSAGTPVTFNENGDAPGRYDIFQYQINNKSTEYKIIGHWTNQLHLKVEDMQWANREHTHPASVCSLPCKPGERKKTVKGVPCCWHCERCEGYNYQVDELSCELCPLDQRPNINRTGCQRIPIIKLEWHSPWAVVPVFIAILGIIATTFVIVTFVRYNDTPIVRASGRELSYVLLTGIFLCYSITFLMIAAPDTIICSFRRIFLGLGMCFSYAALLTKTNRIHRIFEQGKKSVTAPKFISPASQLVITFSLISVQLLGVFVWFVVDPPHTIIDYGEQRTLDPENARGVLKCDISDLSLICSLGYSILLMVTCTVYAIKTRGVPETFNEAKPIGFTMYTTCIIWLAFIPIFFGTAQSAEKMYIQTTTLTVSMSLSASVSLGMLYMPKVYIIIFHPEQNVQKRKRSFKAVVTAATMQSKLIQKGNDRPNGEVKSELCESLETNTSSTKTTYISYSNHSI
`CCCOc1cccc(-c2nn(-c3ccccc3)cc2/C=C(\C#N)C(=O)NCCCn2ccnc2)c1` showed a z-score of -0.485. For the molecule `O=C(COc1ccccc1)NCc1nnc(SCC(=O)Nc2nccs2)n1-c1ccccc1`, the z-score was -0.247.

Take `Cc1ccc(SCC(=O)NCCN2C(=O)CSC2=O)c(C)c1`: the z-score was 0.898. In the case of `CCc1nnc(NC(=O)C2CC(=O)N(c3ccc4c(c3)OCCO4)C2)s1` (stereo not given) it was -0.124. The value for `CN(c1ccc(OCc2nnc(-c3ccccc3)o2)cc1)S(=O)(=O)c1ccccc1` was -0.0803; that for `CCOC(=O)c1sc2nc3c(cc2c1N)COC(C)(C)C3` was -0.191.

Regarding `Cc1ccc(OCC(O)CN2CCN(Cc3ccc4c(c3)OCO4)CC2)c(C)c1` (stereo not given), the z-score was -1.56. The molecule `CC1(C)CC(=O)C2=C(C1)Nc1cc3c(cc1C2c1ccc2c(c1)OCO2)OCO3` (stereo not given) displayed a z-score of -0.639. The molecule `O=C(N/N=C/c1ccc(N2CCOCC2)o1)c1cccc(F)c1` registered a z-score of -0.000719.

In the case of `C=CCNc1oc(-c2cccc3ccccc23)nc1C#N`, the z-score worked out at 0.211. The value for `O=C(c1ccccc1)c1ccc(OC(=O)N2CCOCC2)cc1` was -1; that for `O=C(Cn1c(=O)oc2cc(S(=O)(=O)N3CCc4ccccc43)ccc21)NC1CCCC1` was -0.167; that for `O=C(Cn1nc(Cc2cccnc2)c2ccccc2c1=O)NCc1ccc2c(c1)OCO2` was -0.0578.

With `Cc1cc2c(cc1C)C(=O)NC(C)(C)C2`, the z-score is active: 5.66. In the case of `O=C(/C=C/c1ccc2c(c1)OCO2)c1ccco1` it was 0.02; in that of `Cc1ccccc1NC1=C(C(=O)c2ccccc2)N(C)S(=O)(=O)c2ccccc21`, -0.213. In the case of `Cn1c(=O)[nH]c(=O)c2c1nc(CN1CCN(c3ccccc3F)CC1)n2CCCc1ccccc1` it was -0.253; in that of `O=C(CSc1ccc(-c2nc3ccccc3[nH]2)cn1)Nc1ccc2c(c1)OCCO2`, 0.323; in that of `Cc1ccsc1/C=C(\C#N)C(=O)NCc1ccco1`, -0.0871.

For `CCc1ccc2nc(N3C(=O)c4oc5ccccc5c(=O)c4C3c3ccc(OC)c(OC)c3)sc2c1` (stereo not given), the z-score is -0.133. The value for `O=C(c1ccc(F)cc1F)N1CCN(c2ncccn2)CC1` was -0.217. `COc1cccc(C(=O)Nc2ccc3c(c2)C(=O)N(CCC(=O)O)C3=O)c1`: the z-score is -0.148. In the case of `CCNC(=S)NNC(=O)c1cc(-c2ccc(OCC)cc2)nc2ccccc12` it was 0.71; in that of `Cc1ccc(-c2cc(C(=O)NN=C3CCCC3)c3ccccc3n2)cc1`, 0.044; in that of `CCC(C)n1c(-c2cccs2)nc2nc3ccccc3nc21` (stereo not given), -0.664. Regarding `O=C(Nc1ccc(Cl)c(C(F)(F)F)c1)NC1CC2CCCC(C1)N2C1CC1` (stereo not given), the z-score came out at 0.511. In the case of `Cc1cc(C(C)(C)C)ccc1OCCN1CCCC1` it was 1.41; in that of `CC(C)C1C(C#N)=C(N)Oc2n[nH]c(-c3ccc4ccccc4c3)c21` (stereo not given), -0.0843; in that of `Cc1cccc(N2CCN(C(=S)NCc3ccco3)CC2)c1C`, -0.157. With `O=C(OCn1nnc2ccccc2c1=O)c1ccc2ncsc2c1`, the z-score turned out to be 0.149. For the molecule `O=C(Nc1cccc(Br)c1)c1cc2ccccc2o1`, the z-score is -0.636. For the molecule `COc1ccc2oc(=O)c(-c3ccccc3C(=O)N3CCOCC3)cc2c1`, the z-score is -0.104. With `CCOC(=O)c1c(-c2ccc(C)o2)csc1NC(=O)CN1CCOCC1`, the z-score was -1.17. In the case of `COc1c(F)c(F)c(C(=O)O)c(Nc2ccccc2C)c1F` it was -0.533; in that of `COc1ccc(C2NC(=S)NC3=C2CCc2cc(OC)ccc23)cc1` (stereo not given), -0.223; in that of `O=C(O)c1ccccc1NC(=S)NC(NC(=O)c1ccccc1[N+](=O)[O-])C(Cl)(Cl)Cl` (stereo not given), -0.103. In the case of `CCOc1ccc(NC(=O)CN2CCN(CC(=O)Nc3ccc(C(=O)OC)cc3)CC2)cc1` it was 0.201; in that of `CN(C)CCCOc1ccc(C(C)(C)c2ccccc2)cc1`, active: 3.07. The value for `COc1cccc(CNc2ccc(S(N)(=O)=O)cc2)c1OC` was 0.00283; that for `Cc1ccc(S(=O)(=O)N2CCN(C(=O)CCN3C(=O)c4ccccc4C3=O)CC2)cc1C` was -0.148; that for `CCc1cc(-c2n[nH]c(=S)n2-c2ccccc2C)cs1` was -0.325. `CC1CN(C(=O)C2CCCC2)C(C)CN1C(=O)C1CCCC1` (stereo not given) registered a z-score of 0.888. `COC(=O)c1ccc2c(c1)C(C)(C)C(/C=C/c1ccccc1O)=[N+]2C` returned a z-score of -0.714.

For `O=C(NC1CCCCC1)C1CCN(c2nccs2)CC1`, the z-score is -0.0726. In the case of `O=C(NCCOC(=O)c1ccc(Cl)cc1)c1cccnc1` it was 1.01; in that of `O=C(NC1(C(F)(F)F)C(=O)Nc2c1c(=O)[nH]c(=O)n2Cc1ccco1)C1CC1` (stereo not given), -0.556.

`Nc1nnc(CCOc2ccc(Cl)cc2)s1` gave a z-score of -0.144. As for `Cc1nc(-n2[nH]c3c(c2=O)CCCC3)[nH]c(=O)c1Cc1ccccc1`, the z-score is -0.872. In the case of `CCOC(=O)c1c(N2C(=O)C3CC(C)=C(C)CC3C2=O)sc(C)c1C` (stereo not given) it was -0.882; in that of `CCOC(=O)c1ccc(-n2[nH]c(-c3ccccc3)cc2=O)cc1`, 0.242. In the case of `CCC(c1nnnn1CCOC)N1CCN(Cc2ccccc2OC)CC1` (stereo not given) it was 0.442; in that of `CC(=O)c1cn(CC(=O)NCc2cccnc2)c2ccccc12`, 0.276; in that of `Cc1ccc(C(C)C)c(OCC(=O)Nc2ccc(Cl)cn2)c1`, 0.385. The value for `Cc1ccc(C(=O)N(CC(=O)Nc2ccc(Cl)c(Cl)c2)Cc2ccco2)cc1` was -0.81; that for `COc1ccccc1NC1=NC(c2ccc(Cl)cc2)N=C(N)N1` (stereo not given) was 1.88. `O=C(Nc1cccc(Cl)c1)ON=C1c2ccccc2-c2ccccc21` yielded a z-score of 0.349. In the case of `COc1ccc(NC(=O)COC(=O)CCCOc2ccc(Cl)cc2Cl)cc1` it was -0.0404; in that of `CC(=O)N(/N=C/c1cccc(C)c1)c1nc(-c2ccc(Br)cc2)cs1`, -0.163.

As to `CCCCCCOC(=O)Sc1nc2ccccc2o1`, the z-score came out at 0.0536. The value for `O=C(CSc1ccc2c(c1)OCCO2)Nc1ncc(Cl)cc1Cl` was -0.149; that for `Cc1nc(NC(=O)c2ccccc2)sc1-c1csc(NCc2ccccc2)n1` was 0.38. The value for `O=C(CCCOc1ccc(Cl)cc1)Nc1nncs1` was 0.62. In the case of `Cc1ccc(-c2nc(N)n(C(=O)Cc3ccccc3)n2)cc1` it was 0.176; in that of `O=C1[C@@H]2[C@@H]3C[C@@H]([C@H]4ON=C(c5ccc(Cl)cc5Cl)[C@@H]34)[C@@H]2C(=O)N1C1CCCCC1`, -0.5; in that of `CC1CCCCN1c1nnc(N)s1` (stereo not given), -0.152. On to `CC(C)(C)C(=O)NC(=S)Nc1cc(C(F)(F)F)ccc1N1CCOCC1`, for which the z-score amounted to 0.0538. In the case of `O=C1CC(c2ccccc2)c2ccc(O)cc2O1` (stereo not given) it was -1.31; in that of `CCc1cc(C(=O)O)c(NC(=O)C(c2ccccc2)c2ccccc2)s1`, -0.0977.

For the molecule `NS(=O)(=O)c1cccc(NC(=O)CSc2ccccn2)c1`, the z-score was -0.121.

`CCOC(=O)N1CCC(NC(=O)c2cc3cc4cc(OC)ccc4nc3o2)CC1` showed a z-score of -0.795. The value for `COc1ccc(N=C2SC(C(=O)O)CC(=O)N2Cc2ccc(OC)c(OC)c2)cc1` (stereo not given) was -0.441. `CCOCCOCCC(C(=O)O)P(=O)(c1ccccc1)c1ccccc1` (stereo not given) showed a z-score of 0.307. In the case of `COC(=O)c1ccccc1NC(=O)CCS(=O)(=O)c1ccc(Br)s1` it was 0.448; in that of `CCCCCCc1nc2ccccc2c(=O)n1NC(=O)c1c(O)c2cccc3c2n(c1=O)CC3`, -0.113; in that of `Cc1cccc(NC2=NC3(CCCCC3)N=C(N)N2)c1`, 0.0139. In the case of `COc1cc(/C=C(\NC(C)=O)C(=O)Nc2ccc(NC(C)=O)cc2)ccc1OC(C)=O` it was -0.0649. In the case of `N#Cc1cc2c(nc1SCc1cccnc1)CCCCC2` it was -0.348. In turn, `Cc1cccc(N2CCN(C(=O)CCCOc3ccccc3)CC2)c1C` yielded a z-score of -2.63. With `CC(C)(C)c1cc(NS(=O)(=O)c2ccc3c(c2)OCCO3)on1`, the z-score is -0.178. The value for `Cc1cccc(NS(=O)(=O)c2ccc(C3CCCCC3)cc2)c1` was -0.494; that for `COc1cc([N+](=O)[O-])ccc1NC(=O)CN(C)C` was -0.0308; that for `CCCCN1C(=O)c2ccc(C(=O)NCCN3C(=O)S/C(=C\c4cccnc4)C3=O)cc2C1=O` was -0.796. In the case of `Fc1ccc(Oc2ncccn2)c(F)c1` it was 0.118; in that of `C/C(CC(=O)Nc1ccccn1)=N\NC(=O)C(=O)Nc1cccc(Cl)c1C`, 0.436; in that of `COc1ccc(OCC(=O)NNc2c3ccccc3nc3ccccc23)cc1`, -0.462. In the case of `O=C(Cc1c(C(=O)O)[nH]c2ccccc12)NCCN1CCN(c2ccccc2F)CC1` it was 0.0465; in that of `O=C(Nc1ccccc1)/C(=C\c1ccncc1)NC(=O)c1ccccc1`, -0.0744; in that of `CCN(CC)CCCNC(=O)CC1Oc2ccc(C)cc2NC1=O` (stereo not given), -0.335.

In turn, `O=C(c1ccc2nccnc2c1)N1CCN(Cc2ccc3c(c2)OCO3)CC1` came in with a z-score of 1.16.

As to `COc1ccc(CCn2nnc(-c3ccc(NC(C)=O)c(Cl)c3)n2)cc1`, the z-score worked out at 0.0768.

Molecule `Cc1ccccc1OCc1nc(-c2ccc(NC(=O)c3cccs3)cc2)no1` had a z-score of -0.2.

For the molecule `COc1cccc(-c2ncc3ccccn23)c1`, the z-score was determined as 0.279. The value for `Cc1ccc(C)c(N(C(=O)Cc2cccs2)C(C(=O)NC2CCCC2)c2ccc(C)o2)c1` (stereo not given) was -0.0192; that for `CCn1c(SCC(=O)Nc2cc(NC(C)=O)ccc2OC)nnc1-c1ccccn1` was -0.2; that for `CC[n+]1c(C)sc2c(C)cc(C)cc21` was -0.0785.

In turn, `Cc1c(=O)n(OCc2cccc(F)c2)c2ccccc2[n+]1[O-]` gave a z-score of 0.132.

As for `CC1Oc2ccccc2N(CC(=O)N(Cc2ccccc2)Cc2ccccn2)C1=O` (stereo not given), the z-score came to 0.37. The value for `CCOc1cccc(C(=O)Nc2nccs2)c1` was -0.0912; that for `O=C(O/N=C/c1cccc([N+](=O)[O-])c1)C1CC1` was 0.0781. In the case of `Cn1cc(C(=O)Nc2ccc(F)c(F)c2)cn1` it was 0.0938.

`O=C(Cc1ccc(-n2c(=S)[nH]c3ccccc3c2=O)cc1)N1CCN(c2ccccc2)CC1` displayed a z-score of -0.757. The value for `c1ccc(-c2nc3ccccc3o2)nc1` was 0.78; that for `Nc1c(-c2ccc(F)cc2)cnc2ncnn12` was -0.163. The value for `CCOc1ccc(CCNC(=O)C(O)c2ccccc2)cc1` (stereo not given) was 0.228; that for `Cc1cc(C)nc(SCc2ccc3nonc3c2)n1` was -0.825; that for `O=C(Nc1ccccc1F)C1CCCN(S(=O)(=O)c2cccc3cccnc23)C1` (stereo not given) was 0.371.

For `O=C(c1ccco1)N1CCN(CC(=O)N2c3ccccc3CCc3ccccc32)CC1`, the z-score is -0.317.

Take `c1ccc(-c2csc(NNC3=NCCCCC3)n2)cc1`: the z-score is 0.0175. In the case of `CS(=O)(=O)c1ccc(Cl)c(NC(=O)CSc2nc3ccccc3c(=O)n2CCCN2CCOCC2)c1` it was -0.358; in that of `O=C(CCNS(=O)(=O)c1ccc(Br)s1)N1CCN(c2ccccc2)CC1`, -0.575.

Values taken from PubChem BioAssay AID488969 (Vanderbilt High Throughput Screening Facility, 2010).
